B1: LINE1-mini (parent)
chain: GGCAGAGCUCAACACAGCGUGGCAAAGUGGCUGUGGCUAGACUGCC

The source gives no read counts; variants with many changes may rest on few reads.

The series covers variants of B1. Briefly: self-cleavage, relative activity (ratio to wild type); higher = more cleavage; in vitro, sequencing; the parent is a self-cleaving ribozyme.
As to GGCAGAGCGCAACACAGCGUGGCAAAGUGGCUGUGGAUAGACUACC, the self-cleavage stood at 0.13. The value for GGCAGAGCGCAACACAGCGUGGCAAAGUGGCUGUGGAUAGACUUCC was 0.23.

On to GGCAGAGCGCAACACAGCGUGGCAAAGUGCCUGUGGUUAGACUGCC, for which the self-cleavage was determined as 0.04. As for GGCAGAGCGCAACACAGCGUGGCAAAGUGGCGGUGGCUAUACUGCC, the self-cleavage is 0.24.

On to GGCAGAGCGCAACACAGCGUGUCAAAGUGGCUGUGGCUAUACUGCC, for which the self-cleavage was found to be 0.01. With GGCAGAGCGCAACACAGCGUGGCAAAGGGGCUGUGGCAAGACUGCC, the self-cleavage turned out to be 0.02. The value for GGCAGAGCGCAACACAGCGUGGCAAAGAAGCUGUGGCUAGACUGCC was 0.05.

As to GGCAGAGCGCAACACAGCGUGGCAAAGUGGCUGUAGCUUGACUGCC, the self-cleavage is 0.06. As for GGCAGAGCGCAACACAGCGUGGCAAAUUGGCUGUUGGUAGACUUCC, the figure is 0.01; as for GGCAGAGCGCAACACAACGUGACAAAGUGGCUGUGGCUAGACUGCC, 0.01. Regarding GGCAGAGCGCAACACAGCGUGUAAAAGUGGCUUUGGCUAGACUGCC, the self-cleavage is 0.15. As for GGCAGAGCGCAACACAGCGUGCCAAAGUGGCUGUAGCUAGACUGCC, the figure is 0.06; as for GGCAGAGCGCAACACAGAGUCGCAAAGUGGCUCUGGCUAGACGGCC, 0.27; as for GGCAGAGCGCAACACAGCGUGGCAAAGUGGCUCAGGUUCGACUGCC, 0.07.

Consider GGCAGAGCGCAACACAUCGUGGCAAAUUUGUUGUGGCUAGACUGCC, for which the self-cleavage was 0.08. As for GGCAGAGCGCAACACAACGUGGCUAAGUGGCUGUGGCUAGACUGCC, the figure is 0.04; as for GGCAGAGCGCAACACAGCGUGGCAAAGUGGCUGUGUCUAGACUGUC, 0.11; as for GGCAGAGCGCAACACAGCGUGGUAAAGUGGCUGUGUCUAGACUGCC, 0.1.

For GGCAGAGCGCAACACAGCGUGACAAGGAGGCUGUUGCUAGACUGCU, the self-cleavage is 0.03. As for GGCAGAGCGCAACACAGCAUGGCAAAGUCGCUGUGGCCAGAGUGCC, the figure is 0.04; as for GGCAGAGCGCAACACAGGGUGGCAAAGUGGCUGUGGCUACACUGCG, 0.03; as for GGCAGAGCGCAACACAGCGUGGCAAAGUGGCAGUGGCUAGACUUCC, 0.06. As for GGCAGAGCGCAACACAGCGUGGCAAAGUGGCUGUGGUUAGAUUGCC, the figure is 0.05; as for GGCAGAGCGCAACACAGCUUGGCAAAGUGGCUGUGGCUAUACUGCA, 0.06; as for GGCAGAGCGCAACACAGCGUGGCAAAGUUGCUGUGGCUCGACUGCC, 0.02. As for GGCAGAGCGCAACACAGCGUGGCAAAGUCGCUGUGGCUCGACUGCC, the figure is 0.02; as for GGCAGAGCGCAACACAGCGUGGCAAAGUGGCUGUGGCUAGAAUAUC, 0.04; as for GGCAGAGCGCAACACAGCCGGGCAAAGUGGCUGUGGCUAAACUGCC, 0.04. Turning to GGCAGAGCGCAACACAGCGUGGCAAAGUUGCUGUGGCUAGACUGGC, the self-cleavage is 0.16. The value for GGCAGAGCGCAACACAGCGUGGCAAAGUGGCUGUGGAUAGACUGCU was 0.04; that for GGCAGAGCGCAACACAGCGUUGCAAAGUGGCUGUGCCUUGACUGCC was 0.01.

For GGCAGAGCGCAACACAGUGUGGCAAAGUGGCUGUGGUUAGACUGCC, the self-cleavage was found to be 0.03. As for GGCAGAGCGCAACACAGCGUAGAAAAGUGGCUGUGGCUAGACUGCC, the figure is 0.01.

In the case of GGCAGAGCGCAACACAGCGUGGCAAAGUAGCUGUGGCUAGAAUUCC, the self-cleavage is 0.07. The value for GGCAGAGCGCAACACAGCGUGGCAAAGUGUGUGUGGCUAGACUGCC was 0.01; that for GGCAGAGCGCAACACAACGUGGCAAAGGGGCUGUGGCUAGAUUGCC was 0.03; that for GGCAGAGCGCAACACAGCGUGGGAAAGUAGCUGUGGCUAGACUGCC was 0.04. As for GGCAGAGCGCAACACAGCGCGGGAAAGUGGCUGUGGCUAGACUUCC, the figure is 0.01; as for GGCAGAGCGCAACACAGCGUUGCUAAGUGGCUGUGGCAAGACUGCC, 0.14; as for GGCAGAGCGCAACACAGCGUGGUAAAGUGGCUGUGGCUAGACUCCC, 0.02. For the variant GGCAGAGCGCAACACAUCGUGGCCAAGUGGUUGUGGCUAGACUGCC, the self-cleavage was 0.02. Turning to GGCAGAGCGCAACACAGCUUGGCAGCGUGGCUGUGGCUAGACUGCC, the self-cleavage turned out to be 0.14. Consider GGCAGAGCGCAACACAGCAUGGCAAAGUGGCGGUGGCUAGACUGCC, for which the self-cleavage came to 0.1. As for GGCAGAGCGCAACACAGCCUGGUAAACUGGCUGUGGCUAGACUGCC, the figure is 0.03; as for GGCAGAGCGCAACACAACGUGGCAGAGUGGCUGUGGCUAGACUACC, 0.02; as for GGCAGAGCGCAACACAGUGUGACGAAGUGGCUUUCGCUAGACUGCC, 0.03. As for GGCAGAGCGCAACACAGCGUGGCAAAGUGGCAGUGGCUUGACUGCC, the figure is 0.03; as for GGCAGAGCGCAACACAGCGUGGCAAAGAGGCUGUGGCCAGACUGCC, 0.09; as for GGCAGAGCGCAACACAGCGUGUCAAAGUAGCUGUGGCUAGACUGCC, 0.05.

As to GGCAGAGCGCAACACAGCGUGGCAAACUGGCUUUGGCGAGACUGCC, the self-cleavage amounted to 0.08. The value for GGCAGAGCGCAACACAGCGUGGCAAAGUGGUUCUGGCUAGACUGCC was 0.04; that for GGCAGAGCGCAACACAGCGUUGCAAAGUGGAUGUGGCUGGACUGCC was 0.02; that for GGCAGAGCGCAACACAGCUUGGCAAAGUGGCUGUGGCUAGACUGCU was 0.27.

As to GGCAGAGCGCAACACAGCGUGACAAAGUGUCUGUUGCUAGACUGCC, the self-cleavage was found to be 0.01. As for GGCAGAGCGCAACACAGCGUGUCUAAGUGGCUGUGGCUAGACUGUC, the figure is 0.08; as for GGCAGAGCGCAACACAGCGUGGCAAAGAGGCUGUGGCCAGGCGGCC, 0.02; as for GGCAGAGCGCAACACAGCAUGGCAAAGUGGCUGUGGCUAGACUACC, 0.02. Regarding GGCAGAGCGCAACACAGCGUGGUCAAGUGGCUGUGGCUAGACUGCC, the self-cleavage was determined as 0.05. Take GGCAGAGCGCAACACAGCGUGACAAAGAAGCUGUGGCUAGACUGCC: the self-cleavage came out at 0.03. The value for GGCAGAGCGCAACACAGUGUGGCUAAGUGGCUGUGGCUAGACAGCC was 0.

Consider GGCAGAGCGCAACACAGCGGGGCAAAGUUGCUGUGGCAAGAAUGCC, for which the self-cleavage came out at 0.03.

For the variant GGCAGAGCGCAACACAACGUGGCAAAGUGGAUGUGGCUAGACUGCC, the self-cleavage worked out at 0.06. As for GGCAGAGCGCAACACAACGUGGCAAAGUGGCUGUGUCUAGACUGCC, the figure is 0.04; as for GGCAGAGCGCAACACAGCGUGGAAAAGUGCCUGUAGCUAGACUGCC, 0.01; as for GGCAGAGCGCAACACAGCGUGACAAAGUUGCGGUGGCUAGACUGCC, 0.02. As for GGCAGAGCGCAACACAUCGUGGCAAAGUGGCUGAGGCUAGACCGCC, the figure is 0.05; as for GGCAGAGCGCAACACAUUGUGGCAAAGUGGCUGUGGCUAGACUGCC, 0.02. For GGCAGAGCGCAACACAGCGUGGCAAAGAGGCUGUGGCUAGACUGAC, the self-cleavage was 0.25. As for GGCAGAGCGCAACACAGCUUGGCAAAGUCGCUGUGGCUAGUCUGCC, the figure is 0.03; as for GGCAGAGCGCAACACAGCGUGUCAAAGUGGCUGUGGCUAGACUUCA, 0.02. As for GGCAGAGCGCAACACAUCGUGCCAAAGUGGCUGUGGCUAUACUGCC, the figure is 0.06; as for GGCAGAGCGCAACACAGCGCGGCAAAAUGGCUGUGGCUAGACUGCC, 0.19; as for GGCAGAGCGCAACACAGCGUGGCAAAGUGGAUGUGGCCAGACUGCC, 0.01. As for GGCAGAGCGCAACACAACGUGGCAAAGUGGCUGUAGCUAGACGGCC, the figure is 0.06; as for GGCAGAGCGCAACACAGCGUGGCAAAGGGGCUGUGGAUUGACUGCC, 0.04; as for GGCAGAGCGCAACACAGCGUGGCAAAUUGGCUGUGGCUAGAAUGCC, 0.2.

In the case of GGCAGAGCGCAACACAGCGUGGCAAAGUUGCUGGGGCUAGACUGCC, the self-cleavage worked out at 0.03. As for GGCAGAGCGCAACACAGCGUAGCAAAAUGGCUGUGGCUAGACUGCC, the figure is 0.03; as for GGCAGAGCGCAACACAGCGUGGCAAAGUGGCCGUGCCUAGACUGCC, 0.04. The value for GGCAGAGCGCAACACAGUGUGGCUAAGUGGCUGUGGCUAGACUGCC was 0.02; that for GGCAGAGCGCAACACAGCGUGGCAAAGUGGCUGUUGCUACACUGCC was 0.01. The value for GGCAGAGCGCAACACAGCGGGGCAAAGUGUCUGUGGCUAGACUGCC was 0.03; that for GGCAGAGCGCAACACAGCGGGGCAAAGUGGUUGUGGCUAGACUGCC was 0.02. As for GGCAGAGCGCAACACAGCGUGGAAAAAUGGCUGCGGCUAGACUGCC, the self-cleavage worked out at 0.06. As for GGCAGAGCGCAACACAGCGUGGCAAAGUGGCUGUGGCUAGACUUUC, the figure is 0.22; as for GGCAGAGCGCAACACAACGUGGCAAAGUGGCUGUCGCUAGACUGCC, 0.1; as for GGCAGAGCGCAACACAGCUUGGCAAAGUGCCUGGGGCGAGACUGCC, 0. The value for GGCAGAGCGCAACACAGCGUGGCAAAGUGGUGGUGUCUAGGCUGCC was 0.23; that for GGCAGAGCGCAACACAGCGUGGCAAAGUGGAUGUGGCUAGAGUGCC was 0.02; that for GGCAGAGCGCAACACAGCGUGGCAAAGUGGUUGUGGCCAGACUGCC was 0.02. As for GGCAGAGCGCAACACAUCGUUGCAGAGUGGCAGUAGCUAGACGGCG, the figure is 0; as for GGCAGAGCGCAACACAGCUUGGAAACGUGGCUGUGGCUAGACUGCC, 0.06; as for GGCAGAGCGCAACACAGCGUGUCAAAGUGGCUGUGGCUAGACUACC, 0.04. Take GGCAGAGCGCAACACAUCGUGGCACAGGGGCUUUGGGUAGACUUCC: the self-cleavage turned out to be 0.06. As for GGCAGAGCGCAACACAGUGUGGUAAAGUAGCUGUGGCUAGACUGCC, the self-cleavage came to 0.11. The value for GGCAGAGCGCAACACAGCGUGGCAAAGGGGCUGUGGCUAGACUUCC was 0.05; that for GGCAGAGCGCAACACAGCGUGGCAAAGUGGCUGUGUCUAGACUGCA was 0.1. As for GGCAGAGCGCAACACAGCGAGGCAAAGUGGCUGUGGCUACAUUGCC, the figure is 0.03; as for GGCAGAGCGCAACACAGCGUGGCAAAGUGGUUGUGGCUAGAAUGAC, 0.07; as for GGCAGAGCGCAACACAGCGUGGAAAAGUGGCUGUGGCUGGACUGCC, 0.07.

Turning to GGCAGAGCGCAACACAGCGUGGCAAAGUGGCUAUGGCUAGGCUACC, the self-cleavage stood at 0.01. As for GGCAGAGCGCAACACAGCGUGGCAAAGUGGCUAUGGCUAAACAGCC, the figure is 0.01. As for GGCAGAGCGCAACACAGAGUGGCAAAGUGGCUUUAGCUAGACUGCC, the self-cleavage worked out at 0.02. As for GGCAGAGCGCAACACAGCGUGGCAAAGUGGCUGAGGUUAGACUGCA, the figure is 0.01; as for GGCAGAGCGCAACACAGCGUGGCAAACUGGCUGUGGCUAGACUACC, 0.09. The value for GGCAGAGCGCAACACAGCCUGGCAAAGUGGCUGUGGUUAGACUGCC was 0.17; that for GGCAGAGCGCAACACAGCGUGGCAAAGUUGCUGUGGCUAGACUGCA was 0.03.

On to GGCAGAGCGCAACACAGCGUGACAAAGUGCCUGUGGCUAGACUUCC, for which the self-cleavage was determined as 0.06. The value for GGCAGAGCGCAACACAGCGUGACAAAGUGGCUGUGCCUAGACUGCC was 0.02; that for GGCAGAGCGCAACACAGCGUGGCAAAGUGGCUGUGGCUAAACUACC was 0.12; that for GGCAGAGCGCAACACAGCGUGGCAAAGUGACUAUGGCUAGACUGCC was 0.08. As for GGCAGAGCGCAACACAGCGUGGCAAAGUGGCUGAGGCUAGACUACC, the figure is 0.1.
